Test results from a collection of fitness landscapes (doi:10.1016/j.celrep.2020.107928).
Over roughly 81,000 sequences, “one-hybrid fitness for binding NBS DNA” has its median near -0.1; the highest 2% begin near 0.36. The list shows a part of the results.

B1: Caulobacter ParB omega fusion; a variant is named by its letters at X, in order, B8GW30 (parent)
chain: MESVVVGEPGMSEGRRGLGRGLSALLGEVDAAPAQAPGEQLGGSREAPIEILQRNPDQPRRTFREEDLEDLSNSIREKGVLQPILVRPSPDTAGEYQIVAGERAWRAAQRAGLKTVPIMVRELDDLAVLEIGIIENVQRADLNVLEEALSYKVLMEKFERTQENIAQTIGKSXSHVANXMRLLXLPDEVQSYLVSGELTAXHARAIAAAADPVALAKQIIEGGLSVRETEALARKAPNLSAGKSKGGRPPRVKDTDTQALESDLSSVLGLDVSIDHRGSTGTLTITYATLEQLDDLCNRLTRGI

Variants of: B1
Test: one-hybrid fitness for binding NBS DNA (the Noc-binding site; scaled: cognate 1, non-cognate 0); higher = stronger binding
Settings: with NBS DNA site
Procedure, shortened: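 On M9-minus-histidine containing 0.1 mM IPTG and 5 mM 3-AT, E. coli USO cells with a HIS3 reporter, site 19 bp from the promoter, grew 48 hours at 37°C to select Caulobacter ParB libraries randomised at four specificity codons. Plasmids from before and after were Illumina-sequenced, with three replicate libraries pooled and variants under 10 reads left out. Fitness is the log change in variant-to-wild-type read ratio, rescaled against cognate and non-cognate.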

Row | Variant | one-hybrid fitness for binding NBS DNA
1 | CCSS | ≤ 0.2
2 | VDDS | ≤ 0.2
3 | PSLV | ≤ 0.2
4 | FPST | ≤ 0.2
5 | SWYM | ≤ 0.2
6 | ASDI | ≤ 0.2
7 | ATRN | ≤ 0.2
8 | KSLV | ≤ 0.2
9 | RIMR | 0.319
10 | MSQI | ≤ 0.2
11 | SNKS | ≤ 0.2
12 | LGME | ≤ 0.2
13 | PARA | ≤ 0.2
14 | PYMS | ≤ 0.2
15 | AKWT | ≤ 0.2
16 | GQHM | ≤ 0.2
17 | EAGT | ≤ 0.2
18 | WKYM | ≤ 0.2
19 | LAMS | ≤ 0.2
20 | PFGY | ≤ 0.2
21 | LWVI | ≤ 0.2
22 | HLVW | ≤ 0.2
23 | IPVT | ≤ 0.2
24 | DFLL | ≤ 0.2
25 | SVTR | ≤ 0.2

Row | Variant | one-hybrid fitness for binding NBS DNA
26 | NFCR | ≤ 0.2
27 | FPDL | ≤ 0.2
28 | NKFG | ≤ 0.2
29 | VNME | ≤ 0.2
30 | TVFI | ≤ 0.2
31 | RKWS | 0.467
32 | NEGC | ≤ 0.2
33 | RKEC | ≤ 0.2
34 | ATQL | ≤ 0.2
35 | SIWM | ≤ 0.2
36 | PTDV | ≤ 0.2
37 | QYGA | 0.219
38 | NRQY | ≤ 0.2
39 | PDEN | ≤ 0.2
40 | VETA | ≤ 0.2
41 | KHQI | ≤ 0.2
42 | LFRN | ≤ 0.2
43 | PEGL | ≤ 0.2
44 | DMEL | ≤ 0.2
45 | QNTT | ≤ 0.2
46 | ISIA | ≤ 0.2
47 | PDDD | ≤ 0.2
48 | QLLE | ≤ 0.2
49 | HPNE | ≤ 0.2
50 | FACF | ≤ 0.2

Row | Variant | one-hybrid fitness for binding NBS DNA
51 | TRLF | ≤ 0.2
52 | TYGD | ≤ 0.2
53 | QQAD | ≤ 0.2
54 | PVHR | ≤ 0.2
55 | VTPM | ≤ 0.2
56 | ESYK | ≤ 0.2
57 | ALPH | ≤ 0.2
58 | LQTT | ≤ 0.2
59 | DMSG | ≤ 0.2
60 | QTKR | 1.15
61 | HHRK | ≤ 0.2
62 | GMVC | ≤ 0.2
63 | TEFL | ≤ 0.2
64 | HVWR | ≤ 0.2
65 | QPTM | ≤ 0.2
66 | GRVR | ≤ 0.2
67 | NYPS | ≤ 0.2
68 | SHQC | ≤ 0.2
69 | SGHS | ≤ 0.2
70 | HALP | ≤ 0.2
71 | ELCI | ≤ 0.2
72 | RCGL | ≤ 0.2
73 | WMPT | ≤ 0.2
74 | FTSG | ≤ 0.2
75 | RSKT | 0.618

Row | Variant | one-hybrid fitness for binding NBS DNA
76 | LAPW | ≤ 0.2
77 | STWI | ≤ 0.2
78 | VGEL | ≤ 0.2
79 | QVFA | ≤ 0.2
80 | HFNG | ≤ 0.2
81 | YRSV | ≤ 0.2
82 | NYNH | ≤ 0.2
83 | SEHM | ≤ 0.2
84 | SHQR | ≤ 0.2
85 | DAAK | ≤ 0.2
86 | YERT | ≤ 0.2
87 | GYFR | ≤ 0.2
88 | EKTY | ≤ 0.2
89 | SNAM | ≤ 0.2
90 | LFSD | ≤ 0.2
91 | VDCW | ≤ 0.2
92 | GTMG | ≤ 0.2
93 | MRMA | ≤ 0.2
94 | PKSR | ≤ 0.2
95 | NFMF | ≤ 0.2
96 | RHWD | ≤ 0.2
97 | RAIV | ≤ 0.2
98 | AMCS | ≤ 0.2
99 | QTSI | ≤ 0.2
100 | VSEE | ≤ 0.2

Row | Variant | one-hybrid fitness for binding NBS DNA
101 | VELG | ≤ 0.2
102 | NALH | ≤ 0.2
103 | CMCR | ≤ 0.2
104 | IVLA | ≤ 0.2
105 | QEKC | ≤ 0.2
106 | SDCR | ≤ 0.2
107 | RHFT | 0.245
108 | KMYL | ≤ 0.2
109 | GQLV | ≤ 0.2
110 | AHQN | ≤ 0.2
111 | VLVF | ≤ 0.2
112 | PTTF | ≤ 0.2
113 | VRHV | ≤ 0.2
114 | QVAV | ≤ 0.2
115 | SPLH | ≤ 0.2
116 | PGGY | ≤ 0.2
117 | EAPC | ≤ 0.2
118 | SKDF | ≤ 0.2
119 | RYSI | ≤ 0.2
120 | DCIR | ≤ 0.2
121 | GVHR | ≤ 0.2
122 | SDAW | ≤ 0.2
123 | FSHN | ≤ 0.2
124 | IKRW | ≤ 0.2
125 | VDSS | ≤ 0.2

Row | Variant | one-hybrid fitness for binding NBS DNA
126 | LNGR | ≤ 0.2
127 | DPYR | ≤ 0.2
128 | LYTS | ≤ 0.2
129 | YHHC | ≤ 0.2
130 | NVRC | ≤ 0.2
131 | WLKM | ≤ 0.2
132 | GLCE | ≤ 0.2
133 | FSMR | ≤ 0.2
134 | VVRK | ≤ 0.2
135 | HREY | ≤ 0.2
136 | TESF | ≤ 0.2
137 | ECNR | ≤ 0.2
138 | WSPD | ≤ 0.2
139 | KAAI | ≤ 0.2
140 | PTWK | ≤ 0.2
141 | EQTY | ≤ 0.2
142 | MPRV | ≤ 0.2
143 | KNHI | ≤ 0.2
144 | KSNY | ≤ 0.2
145 | LTHS | ≤ 0.2
146 | CGSH | ≤ 0.2
147 | DCMT | ≤ 0.2
148 | NVWF | ≤ 0.2
149 | RFQY | ≤ 0.2
150 | TITA | ≤ 0.2

Row | Variant | one-hybrid fitness for binding NBS DNA
151 | RYQK | ≤ 0.2
152 | SRFR | ≤ 0.2
153 | YLNG | ≤ 0.2
154 | LINM | ≤ 0.2
155 | TECC | ≤ 0.2
156 | NTAC | ≤ 0.2
157 | EKKL | ≤ 0.2
158 | HTTC | ≤ 0.2
159 | SASY | ≤ 0.2
160 | ASDV | ≤ 0.2
161 | DIPG | ≤ 0.2
162 | IRCL | ≤ 0.2
163 | VRPK | ≤ 0.2
164 | QSWM | ≤ 0.2
165 | APST | ≤ 0.2
166 | NPTW | ≤ 0.2
167 | MDTN | ≤ 0.2
168 | SNMR | ≤ 0.2
169 | NAKW | ≤ 0.2
170 | NQFS | ≤ 0.2
171 | RSHE | ≤ 0.2
172 | LIKS | ≤ 0.2
173 | APRP | ≤ 0.2
174 | ISRG | ≤ 0.2
175 | AMYR | ≤ 0.2

Row | Variant | one-hybrid fitness for binding NBS DNA
176 | YAKT | ≤ 0.2
177 | TKWS | ≤ 0.2
178 | GAFT | ≤ 0.2
179 | PTTK | ≤ 0.2
180 | AMRD | ≤ 0.2
181 | NLMR | ≤ 0.2
182 | RQAE | ≤ 0.2
183 | GKNG | ≤ 0.2
184 | RFLP | ≤ 0.2
185 | HMAG | ≤ 0.2
186 | HDHL | ≤ 0.2
187 | CMMP | ≤ 0.2
188 | MWAS | ≤ 0.2
189 | TTIW | ≤ 0.2
190 | YRAH | ≤ 0.2
191 | QSSR | 0.526
192 | QYFV | ≤ 0.2
193 | LQPT | ≤ 0.2
194 | PGAS | ≤ 0.2
195 | HSPL | ≤ 0.2
